Assay results reported in patent publication US20230192795A1 (Hoffmann-La Roche, published 2023).
Read-outs that look alike come from different tables or passages of the source.

T1: IL-7Rα/IL-2Rγ on human T cells (human, UniProt P16871 21-459; P31785 23-369)
T1 sequence (looked up) 1: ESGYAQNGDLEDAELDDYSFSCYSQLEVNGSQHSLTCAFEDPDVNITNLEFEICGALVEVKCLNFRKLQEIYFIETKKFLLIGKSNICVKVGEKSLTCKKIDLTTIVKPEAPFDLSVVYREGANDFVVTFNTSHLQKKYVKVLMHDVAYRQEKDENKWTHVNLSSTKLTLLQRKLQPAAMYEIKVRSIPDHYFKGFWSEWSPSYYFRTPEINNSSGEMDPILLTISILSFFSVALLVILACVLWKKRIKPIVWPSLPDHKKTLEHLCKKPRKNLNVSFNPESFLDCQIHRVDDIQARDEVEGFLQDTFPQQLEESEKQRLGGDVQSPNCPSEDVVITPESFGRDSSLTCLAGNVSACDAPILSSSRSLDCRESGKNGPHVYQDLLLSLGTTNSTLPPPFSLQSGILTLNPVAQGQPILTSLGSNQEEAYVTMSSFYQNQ
T1 sequence (looked up) 2: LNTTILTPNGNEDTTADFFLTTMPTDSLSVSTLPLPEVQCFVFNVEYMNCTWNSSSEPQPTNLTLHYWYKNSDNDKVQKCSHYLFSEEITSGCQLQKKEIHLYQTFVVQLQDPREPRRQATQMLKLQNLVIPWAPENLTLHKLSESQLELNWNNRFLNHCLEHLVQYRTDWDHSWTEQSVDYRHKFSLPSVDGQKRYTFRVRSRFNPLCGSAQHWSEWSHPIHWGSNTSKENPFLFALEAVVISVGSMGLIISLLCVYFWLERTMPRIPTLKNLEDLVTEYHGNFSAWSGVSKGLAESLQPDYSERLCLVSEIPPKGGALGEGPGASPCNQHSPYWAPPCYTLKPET


Key:
[1] = biological target: T1, IL-7Rα/IL-2Rγ on human T cells; test: cell-based or functional assay
[2] = biological target: T2, human PD-1 on T cells (human, UniProt Q15116 25-288); test: cell-based or functional assay
[3] = biological target: T1, IL-7Rα/IL-2Rγ on human T cells; test: cell-based or functional assay; remark: listed apart in the source
[4] = biological target: T2, human PD-1 on T cells; test: cell-based or functional assay; remark: listed apart in the source
T2 sequence (Q15116 25-288 limits assumed): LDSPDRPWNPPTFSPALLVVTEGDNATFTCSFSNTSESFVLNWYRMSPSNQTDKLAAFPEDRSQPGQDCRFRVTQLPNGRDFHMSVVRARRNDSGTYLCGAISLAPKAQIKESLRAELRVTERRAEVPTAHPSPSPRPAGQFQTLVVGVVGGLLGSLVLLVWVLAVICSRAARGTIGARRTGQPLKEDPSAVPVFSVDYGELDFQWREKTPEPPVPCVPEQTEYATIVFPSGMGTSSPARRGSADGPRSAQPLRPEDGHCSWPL

[5] = biological target: T1, IL-7Rα/IL-2Rγ on human T cells; test: cell-based or functional assay; remark: listed apart in the source
[6] = biological target: T1, IL-7Rα/IL-2Rγ on human T cells; test: cell-based or functional assay; remark: listed apart in the source
[7] = biological target: T3, Human IL7Ra-IL2Rγ-Fc heterodimer (human, biotin on the avi tag); test: SPR, captured via anti-P329G
T3 construct: Extracellular domains of IL-7Ralpha and IL-2Rgamma fused to Fc knob and Fc hole; also called hu IL7Ra-IL2Rγ-Fc avi biotin; human IL7Ra-IL2Rg-Fc biotin
Protocol: SPR experiments were performed on a Biacore 8 K with HBS-EP + 1 mg/ml BSA as running buffer. Anti-P329G Fc specific antibody (Roche internal) was directly immobilized by amine coupling on a C1 chip (Cytiva). The PD1-IL7 constructs were captured for 140 s at 5 nM. […] The dissociation phase was monitored for 800 s and triggered by switching from the sample solution to running buffer. The chip surface was regenerated after every cycle using two injections of 10 mM glycine pH 2 for 60 sec. Bulk refractive index differences were corrected for by subtracting the response obtained on the reference flow cell (containing immobilized anti P329G Fc specific IgG only). The affinity constants were derived from the kinetic rate constants by fitting to a 1:1 Langmuir binding using the Biacore evaluation software (Cytiva).
Four IL7 single variants, two IL7 double variants and IL7 wild-type were compared to four reference molecules with modified IL7 for binding to human IL7 receptor (Table 23). The affinity of the IL7 variants to the IL7 receptor was determined using the recombinant heterodimer of the extracellular domains of the IL7 receptor alpha chain and the common IL2 receptor gamma chain.

Row | EC50 [PD1+]/ EC50[PD1-IL7wt] [1] | STAT5-P AUC PD1+ [1] | STAT5-P AUC PD1 blocked [1] | EC50 [PD1blocked]/ EC50 [PD1+] [2] | EC50[active] / EC50 [active PD1-IL7wt] [3] | EC50[fresh]/EC50 [fresh PD1-IL7wt] [3] | STAT5-P AUC [active] [3] | STAT5-P AUC [fresh] [3] | STAT5-P activity, PD-1 pre-blocked versus PD-1+ T cells [4] | STAT5-P Area (PD1+) [5] | STAT5-P Area (PD1 blocked) [5] | STAT5-P Area (PD1+) [6] | STAT5-P Area (PD1 blocked) [6] | Binder | binding result [7]
1 | 33.5 fold | 59.6 | 22.9 | 11.6 fold | 39.8 fold | 135 fold | 84.5 | 176 | > 12 fold | 45.1 | 15.4 | – | – | Reference Molecule 2 (other) light: DVVMTQSPLSLPVTLGQPASISCRSSQSLVHANTNTYLEWYQQRPGQSPRLLIYKVSNRFSGVPDRFSGSGSGTDFTLKISRVEAEDVGVYYCFQGTHVPNTFGQGTKLEIKRTVAAPSVFIFPPSDEQLKSGTASVVCLLNNFYPREAKVQWKVDNALQSGNSQESVTEQDSKDSTYSLSSTLTLSKADYEKHKVYACEVTHQGLSSPVTKSFNRGEC heavy: QIQLVQSGSELKKPGASVKVSCKASGYTFTHYAMNWVRQAPGQGLEWMGWINTNTGEPTYAQGFTGRFVFSLDTSVSTAYLQISSLKAEDTAVYYCAREREPGMDNWGQGTLVTVSS[human IgG1 constant region with changes left out]GGGGSGGGGSGGGGSDSDIEGKDGKQYESVLMVSIDQLLDSMKEIGSNCLNNEFNFFKRHISDANKEGMFLFRAARKLRQFLKMNSTGDFDLHLLKVSEGTTILLNSTGQVKGRKPAALGEAQPTKSLEENKSLKEQKKLNDLCFLKRLLQEIKTSWNKILMGTKEH | –
2 | – | – | – | – | – | – | – | – | – | – | – | 9 | 1.5 | Reference Molecule 7 (other, Format as m1; IL-7 SS3 (C47S/C92S, C34S/C129S); also called P1AF9649-012) light: DIVMTQSPDSLAVSLGERATINCKASESVDTSDNSFIHWYQQKPGQSPKLLIYRSSTLESGVPDRFSGSGSGTDFTLTISSLQAEDVAVYYCQQNYDVPWTFGQGTKVEIKRTVAAPSVFIFPPSDEQLKSGTASVVCLLNNFYPREAKVQWKVDNALQSGNSQESVTEQDSKDSTYSLSSTLTLSKADYEKHKVYACEVTHQGLSSPVTKSFNRGEC heavy 1: EVQLLESGGGLVQPGGSLRLSCAASGFSFSSYTMSWVRQAPGKGLEWVATISGGGRDIYYPDSVKGRFTISRDNSKNTLYLQMNSLRAEDTAVYYCVLLTGRVYFALDSWGQGTLVTVSSASTKGPSVFPLAPSSKSTSGGTAALGCLVKDYFPEPVTVSWNSGALTSGVHTFPAVLQSSGLYSLSSVVTVPSSSLGTQTYICNVNHKPSNTKVDKKVEPKSCDKTHTCPPCPAPEAAGGPSVFLFPPKPKDTLMISRTPEVTCVVVDVSHEDPEVKFNWYVDGVEVHNAKTKPREEQYNSTYRVVSVLTVLHQDWLNGKEYKCKVSNKALGAPIEKTISKAKGQPREPQVCTLPPSRDELTKNQVSLSCAVKGFYPSDIAVEWESNGQPENNYKTTPPVLDSDGSFFLVSKLTVDKSRWQQGNVFSCSVMHEALHNHYTQKSLSLSPGK heavy 2: EVQLLESGGGLVQPGGSLRLSCAASGFSFSSYTMSWVRQAPGKGLEWVATISGGGRDIYYPDSVKGRFTISRDNSKNTLYLQMNSLRAEDTAVYYCVLLTGRVYFALDSWGQGTLVTVSSASTKGPSVFPLAPSSKSTSGGTAALGCLVKDYFPEPVTVSWNSGALTSGVHTFPAVLQSSGLYSLSSVVTVPSSSLGTQTYICNVNHKPSNTKVDKKV[human IgG1 Fc with changes left out]GGGGSGGGGSGGGGSDCDIEGKDGKQYESVLMVSIDQLLDSMKEIGSNSLNNEFNFFKRHISDANKEGMFLFRAARKLRQFLKMNSTGDFDLHLLKVSEGTTILLNSTGQVKGRKPAALGEAQPTKSLEENKSLKEQKKLNDLSFLKRLLQEIKTCWNKILMGTKEH | no binding (tested: 2.34 to 300 nM receptor-Fc)
